Experimental data taken from patent US20210221908A1 (LAMKAP BIO BETA, published 2021).

How the values were obtained:
[1] = target: T1, human CEACAM5 on MKN-45 cells (human, UniProt P06731 35-685); experiment: flow cytometry on MKN45 CEA+ cancer cells (also carry CD47)
T1 construct: endogenous CEA of MKN-45 gastric adenocarcinoma cells, which also carry CD47 and CEACAM6; UniProtKB P06731; also called CD66e
T1 sequence: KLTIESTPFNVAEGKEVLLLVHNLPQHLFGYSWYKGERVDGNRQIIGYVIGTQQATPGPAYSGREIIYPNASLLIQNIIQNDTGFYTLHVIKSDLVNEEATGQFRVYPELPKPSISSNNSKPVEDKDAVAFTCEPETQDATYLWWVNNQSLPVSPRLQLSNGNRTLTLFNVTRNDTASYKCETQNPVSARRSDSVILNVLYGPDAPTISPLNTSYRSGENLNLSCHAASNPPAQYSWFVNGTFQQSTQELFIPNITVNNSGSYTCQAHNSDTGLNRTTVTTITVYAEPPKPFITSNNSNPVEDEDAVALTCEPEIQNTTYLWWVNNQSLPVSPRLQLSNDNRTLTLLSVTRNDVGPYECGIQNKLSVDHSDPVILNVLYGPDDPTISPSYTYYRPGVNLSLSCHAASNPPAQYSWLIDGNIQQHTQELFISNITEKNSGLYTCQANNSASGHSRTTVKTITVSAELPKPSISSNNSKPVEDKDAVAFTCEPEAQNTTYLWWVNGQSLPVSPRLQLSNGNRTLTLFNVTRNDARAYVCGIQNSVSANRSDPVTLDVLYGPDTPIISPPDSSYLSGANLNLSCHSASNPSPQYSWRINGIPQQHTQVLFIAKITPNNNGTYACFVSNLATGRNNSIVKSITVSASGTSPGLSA
Procedure: Cells are harvested, counted, checked for viability and resuspended at 3×10⁶ cells/ml in FACS buffer (PBS 2% BSA, 0.1% NaN3). 100 μl of the cell suspension are distributed in V-bottom 96-well plates (3×10⁵ cells/well). The supernatant is removed by centrifugation 3 minutes at 4° C., 1300 rpm. Increasing concentrations of the antibody according to the invention are then added into the wells and incubated for 15 minutes at 4° C. Cells are washed twice with cold FACS buffer and re-incubated for further 15 minutes at 4° C. with the PE (R-phycoerythrin)-conjugated mouse anti-human IgG Fc secondary antibody (SouthernBiotech, pre-diluted 1:100 in FACS buffer). Cells are washed twice with cold FACS buffer and resuspended in 300 μl FACS buffer with 1:15000-diluted SytoxBlue (Life Technologies). Fluorescence is measured using a Cytoflex […]. Binding curves and EC50 values are obtained and calculated using GraphPad Prism? software. In the same manner binding of MAB CEA or MAB CEA1 to MKN-45 cells can be tested.

[2] = target: T2, human CD47 on MKN45 cells (human, UniProt Q08722); experiment: inhibition of SIRPα-mouseFc binding to CD47 on MKN45 cells, imaging (CX5); column 'SIRPα inhibition potency'
T2 construct: whole, on cells; also called IAP
Source text: Experimental set-up for the measurement of the SIRPα inhibition potency data shown for bispecific antibodies of this invention (results see table 2):
The detection of bound SIRPα cell-based assay monitoring the interaction of soluble SIRPα with human CD47 expressed at the surface of MKN45 is used for the detection of the blocking activity. Dose-response experiments with bispecific antibodies according to the invention allow determination of an IC50 value.
MKN45 cancer cells, expressing both CD47 and CEACAM5, are stained with CFSE violet to allow the imaging system (CX5) to detect the cells. Briefly, 3,000 stained MKN45 cells per well are seeded in a 384 optical well plate (Costar) and incubated for 50 minutes with increased concentrations of bispecific antibodies of the invention (1.9 pM to 333 nM, in quadruplicates). Then, a fixe concentration of SIRPα—mouseFc premixed with anti-mouse IgG-Fc AF647 coupled antibody (Jackson Immunoresearch diluted 1:2000) is added at 50 ng/mL final. After an incubation of 3H30 plates are acquired with the imaging system (CX5, Thermofisher) and fluorescence signals emitted by the detected bound SIRPα is recorded by the software dedicated to the imaging system. Fluorescence signals are plotted according to the dose range tested and IC50 are calculated by the software (Prism, Graphpad).

EC50 [1]: 76.8 nM | IC50 [2]: 1.6 nM
B1: K2AC23 CEAxCD47 bispecific antibody (bispecific antibody, human IgG1, kappa, lambda)
heavy: [about 120 residues not given here][about 100 residues not given here][human IgG1 Fc not given here]
light 1: DIQMTQSPSSLSASVGDRVTITCRASQSISSYLNWYQQKPGKAPKLLIYAASSLQSGVPSRFSGSGSGTDFTLTISSLQPEDFATYYCQQMHPRAPKTFGQGTKVEIKRTVAAPSVFIFPPSDEQLKSGTASVVCLLNNFYPREAKVQWKVDNALQSGNSQESVTEQDSKDSTYSLSSTLTLSKADYEKHKVYACEVTHQGLSSPVTKSFNRGEC
light 2: QSVLTQPPSASGTPGQRVTISCSGSSSNIGYGLVNWYQQLPGTAPKLLIYATNTRPSGVPDRFSGSKSGTSASLAISGLQSEDEADYYCAAWDFSYKVVFGGGTKLTVLGQPKAAPSVTLFPPSSEELQANKATLVCLISDFYPGAVTVAWKADSSPVKAGVETTTPSKQSNNKYAASSYLSLTPEQWKSHRSYSCQVTHEGSTVEKTVAPTECS
notes: kappa-lambda body, human IgG1, common heavy chain; CEA arm light chain 1A8 (AC23)
